From article PMC10653391
Substitutions are numbered along the chain they refer to. Results are given in words; binding and its absence hold for the method and conditions named. Binding seen in cells or lysates may run through a third protein. Some binding calls cover weakened binding; strength is not graded here. Tags and fused reporters may be left off the sequences shown. Blank lines part the entries; values can stand above or below the molecule they belong to.

Amino acid sequences for entries named in this document (tags omitted).
UniProt Q52LJ0: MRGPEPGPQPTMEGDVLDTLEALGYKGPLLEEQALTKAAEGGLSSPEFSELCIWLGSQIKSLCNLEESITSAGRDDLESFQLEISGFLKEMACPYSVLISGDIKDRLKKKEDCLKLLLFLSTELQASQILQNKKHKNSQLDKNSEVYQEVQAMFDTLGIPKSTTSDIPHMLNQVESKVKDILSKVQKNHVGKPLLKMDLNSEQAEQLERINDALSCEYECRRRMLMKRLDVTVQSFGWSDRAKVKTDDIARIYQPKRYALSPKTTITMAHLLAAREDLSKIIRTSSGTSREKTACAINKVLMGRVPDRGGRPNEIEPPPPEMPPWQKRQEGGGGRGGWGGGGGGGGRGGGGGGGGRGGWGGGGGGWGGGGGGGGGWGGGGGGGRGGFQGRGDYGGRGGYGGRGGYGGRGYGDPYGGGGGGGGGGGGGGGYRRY

Legend:
Experiment in all cases: co-IP; kinetic trapping: FLAG-TRX variants precipitated on M2 FLAG-beads from lysates of HeLa RIEP shTRX cells (endogenous TRX silenced with 2 µg/mL Dox for 3 d); cells left untreated or treated with H2O2 for 3 min, menadione for 15 min, or Tm or Tg for 4 or 8 h; 20 mM NEM; buffer 1 (25 mM TRIS pH 7.4, 5 mM MgSO4, 150 mM NaCl, 0.3% Triton X-100); washes up to 500 mM NaCl; elution with FLAG-peptide in nonreducing conditions; western blot of eluates; partners held by an intermediate disulfide bond
FLAG-TRX CxxS (human) = molecular target: T1, FLAG-TRX CxxS (human) (UniProt P10599)
T1 sequence: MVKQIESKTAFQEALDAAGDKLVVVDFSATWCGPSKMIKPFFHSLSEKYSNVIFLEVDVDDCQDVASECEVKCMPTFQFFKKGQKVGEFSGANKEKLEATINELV

FLAG-TRX CxxC (human) = molecular target: T2, FLAG-TRX CxxC (human) (UniProt P10599)
T2 sequence: T1 sequence with S35C

FLAG-TRX SxxS (human) = molecular target: T3, FLAG-TRX SxxS (human) (UniProt P10599)
T3 sequence: T1 sequence with C32S

Molecule: FAM98B (from UniProt Q52LJ0 1-433)
binding (FLAG-TRX CxxS (human)): no binding

B1: DDX1 (protein, UniProt Q92499 1-740)
chain: MAAFSEMGVMPEIAQAVEEMDWLLPTDIQAESIPLILGGGDVLMAAETGSGKTGAFSIPVIQIVYETLKDQQEGKKGKTTIKTGASVLNKWQMNPYDRGSAFAIGSDGLCCQSREVKEWHGCRATKGLMKGKHYYEVSCHDQGLCRVGWSTMQASLDLGTDKFGFGFGGTGKKSHNKQFDNYGEEFTMHDTIGCYLDIDKGHVKFSKNGKDLGLAFEIPPHMKNQALFPACVLKNAELKFNFGEEEFKFPPKDGFVALSKAPDGYIVKSQHSGNAQVTQTKFLPNAPKALIVEPSRELAEQTLNNIKQFKKYIDNPKLRELLIIGGVAARDQLSVLENGVDIVVGTPGRLDDLVSTGKLNLSQVRFLVLDEADGLLSQGYSDFINRMHNQIPQVTSDGKRLQVIVCSATLHSFDVKKLSEKIMHFPTWVDLKGEDSVPDTVHHVVVPVNPKTDRLWERLGKSHIRTDDVHAKDNTRPGANSPEMWSEAIKILKGEYAVRAIKEHKMDQAIIFCRTKIDCDNLEQYFIQQGGGPDKKGHQFSCVCLHGDRKPHERKQNLERFKKGDVRFLICTDVAARGIDIHGVPYVINVTLPDEKQNYVHRIGRVGRAERMGLAISLVATEKEKVWYHVCSSRGKGCYNTRLKEDGGCTIWYNEMQLLSEIEEHLNCTISQVEPDIKVPVDEFDGKVTYGQKRAAGGGSYKGHVDILAPTVQELAALEKEAQTSFLHLGYLPNQLFRTF
binding (FLAG-TRX CxxS (human)): no binding

B2: CGI-99 (RTRAF/hCLE) (protein, UniProt Q9Y224 1-244)
chain: MFRRKLTALDYHNPAGFNCKDETEFRNFIVWLEDQKIRHYKIEDRGNLRNIHSSDWPKFFEKYLRDVNCPFKIQDRQEAIDWLLGLAVRLEYGDNAEKYKDLVPDNSKTADNATKNAEPLINLDVNNPDFKAGVMALANLLQIQRHDDYLVMLKAIRILVQERLTQDAVAKANQTKEGLPVALDKHILGFDTGDAVLNEAAQILRLLHIEELRELQTKINEAIVAVQAIIADPKTDHRLGKVGR
binding (FLAG-TRX CxxS (human)): no binding

Results, then the molecule that gave them:

binding (FLAG-TRX CxxC (human)): no binding
binding (FLAG-TRX CxxS (human)): binds
binding (FLAG-TRX SxxS (human)): no binding
B3: RTCB (RNA-splicing ligase RtcB homolog) (enzyme, UniProt Q9Y3I0 1-505)
chain: MSRSYNDELQFLEKINKNCWRIKKGFVPNMQVEGVFYVNDALEKLMFEELRNACRGGGVGGFLPAMKQIGNVAALPGIVHRSIGLPDVHSGYGFAIGNMAAFDMNDPEAVVSPGGVGFDINCGVRLLRTNLDESDVQPVKEQLAQAMFDHIPVGVGSKGVIPMNAKDLEEALEMGVDWSLREGYAWAEDKEHCEEYGRMLQADPNKVSARAKKRGLPQLGTLGAGNHYAEIQVVDEIFNEYAAKKMGIDHKGQVCVMIHSGSRGLGHQVATDALVAMEKAMKRDKIIVNDRQLACARIASPEGQDYLKGMAAAGNYAWVNRSSMTFLTRQAFAKVFNTTPDDLDLHVIYDVSHNIAKVEQHVVDGKERTLLVHRKGSTRAFPPHHPLIAVDYQLTGQPVLIGGTMGTCSYVLTGTEQGMTETFGTTCHGAGRALSRAKSRRNLDFQDVLDKLADMGIAIRVASPKLVMEEAPESYKNVTDVVNTCHDAGISKKAIKLRPIAVIKG

binding (FLAG-TRX CxxS (human)): binds
B4: Peroxiredoxin 1 (PRDX1) (enzyme, UniProt Q06830 1-199)
chain: MSSGNAKIGHPAPNFKATAVMPDGQFKDISLSDYKGKYVVFFFYPLDFTFVCPTEIIAFSDRAEEFKKLNCQVIGASVDSHFCHLAWVNTPKKQGGLGPMNIPLVSDPKRTIAQDYGVLKADEGISFRGLFIIDDKGILRQITVNDLPVGRSVDETLRLVQAFQFTDKHGEVCPAGWKPGSDTIKPDVQKSKEYFSKQK
